From a collection of fitness landscapes (doi:10.1016/j.celrep.2020.107928) come the findings set out here.

Whole data set: some 81,000 sequences, median “one-hybrid fitness for binding NBS DNA” near -0.1, cut for the highest 2% near 0.36. Some of the results follow.

B1: Caulobacter ParB omega fusion; a variant is named by its letters at X, in order, B8GW30 (parent)
chain: MESVVVGEPGMSEGRRGLGRGLSALLGEVDAAPAQAPGEQLGGSREAPIEILQRNPDQPRRTFREEDLEDLSNSIREKGVLQPILVRPSPDTAGEYQIVAGERAWRAAQRAGLKTVPIMVRELDDLAVLEIGIIENVQRADLNVLEEALSYKVLMEKFERTQENIAQTIGKSXSHVANXMRLLXLPDEVQSYLVSGELTAXHARAIAAAADPVALAKQIIEGGLSVRETEALARKAPNLSAGKSKGGRPPRVKDTDTQALESDLSSVLGLDVSIDHRGSTGTLTITYATLEQLDDLCNRLTRGI

This assay covers variants of B1. The experiment in a line: one-hybrid fitness for binding NBS DNA (the Noc-binding site; scaled: cognate 1, non-cognate 0); higher = stronger binding. The conditions noted are these: with NBS DNA site. In a few lines: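 Bacterial one-hybrid selection in E. coli USO rpoZ- hisB- pyrF- with a HIS3 reporter carrying the site 19 bp from the promoter, screening Caulobacter ParB libraries with four specificity codons randomised (NNS). Cells grew 48 hours at 37°C on M9-minus-histidine plus 0.1 mM IPTG and 5 mM 3-AT. Plasmids before and after selection were Illumina-sequenced, three replicate libraries pooled, and variants under 10 reads dropped. Fitness is the log change in variant-to-wild-type read ratio, rescaled to cognate 1, non-cognate 0.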
Take KPTC: the “one-hybrid fitness for binding NBS DNA” value was at most 0.2.
With KYHS the figure was at most 0.2.
For SARE, the “one-hybrid fitness for binding NBS DNA” value was at most 0.2.
Take LQEY: the “one-hybrid fitness for binding NBS DNA” value is at most 0.2.
For HFQT, the “one-hybrid fitness for binding NBS DNA” value is at most 0.2.
With ECAA, the “one-hybrid fitness for binding NBS DNA” value is at most 0.2.
As for KRWC, the “one-hybrid fitness for binding NBS DNA” value was at most 0.2.
For GNKQ, the “one-hybrid fitness for binding NBS DNA” value was at most 0.2.
For the variant NNTF, the “one-hybrid fitness for binding NBS DNA” value was at most 0.2.
Regarding WLKT, the “one-hybrid fitness for binding NBS DNA” value is at most 0.2.
With CLHV, the “one-hybrid fitness for binding NBS DNA” value is at most 0.2.
As to GKVN, the “one-hybrid fitness for binding NBS DNA” value was at most 0.2.
For the variant QYRI, the “one-hybrid fitness for binding NBS DNA” value stood at 0.282.
In the case of FVCS it was at most 0.2; in that of GQCW, at most 0.2.
As for GHHP, the “one-hybrid fitness for binding NBS DNA” value was at most 0.2.
For the variant AGIR, the “one-hybrid fitness for binding NBS DNA” value was at most 0.2.
With SYHH the figure was at most 0.2.
Turning to CLRF, the “one-hybrid fitness for binding NBS DNA” value was at most 0.2.
As to FDYV, the “one-hybrid fitness for binding NBS DNA” value was at most 0.2.
For the variant HEHG, the “one-hybrid fitness for binding NBS DNA” value is at most 0.2.
YGSA: the “one-hybrid fitness for binding NBS DNA” value was at most 0.2.
As to RALL, the “one-hybrid fitness for binding NBS DNA” value is at most 0.2.
In the case of CVKC, the “one-hybrid fitness for binding NBS DNA” value was at most 0.2.
Turning to QRFQ, the “one-hybrid fitness for binding NBS DNA” value stood at 0.226.
With CIEC the figure was at most 0.2; with KGIW, at most 0.2.
On to FWAS, for which the “one-hybrid fitness for binding NBS DNA” value was at most 0.2.
With WSTK, the “one-hybrid fitness for binding NBS DNA” value is at most 0.2.
Consider SMFG, for which the “one-hybrid fitness for binding NBS DNA” value was at most 0.2.
Consider HWPM, for which the “one-hybrid fitness for binding NBS DNA” value is at most 0.2.
Take MLST: the “one-hybrid fitness for binding NBS DNA” value is at most 0.2.
Consider LTRK, for which the “one-hybrid fitness for binding NBS DNA” value was at most 0.2.
Regarding AEPQ, the “one-hybrid fitness for binding NBS DNA” value is at most 0.2.
For the variant RQCM, the “one-hybrid fitness for binding NBS DNA” value is at most 0.2.
In the case of QQID, the “one-hybrid fitness for binding NBS DNA” value is at most 0.2.
As for RTID, the “one-hybrid fitness for binding NBS DNA” value was at most 0.2.
In the case of IAQG it was at most 0.2; in that of SWTC, at most 0.2; in that of TAQA, at most 0.2.
Regarding VAKV, the “one-hybrid fitness for binding NBS DNA” value was at most 0.2.
With NWNT, the “one-hybrid fitness for binding NBS DNA” value is at most 0.2.
Take VSRG: the “one-hybrid fitness for binding NBS DNA” value is at most 0.2.
In the case of SHQG, the “one-hybrid fitness for binding NBS DNA” value was at most 0.2.
As for PTTI, the “one-hybrid fitness for binding NBS DNA” value is at most 0.2.
With QNAE, the “one-hybrid fitness for binding NBS DNA” value was at most 0.2.
Consider QSKS, for which the “one-hybrid fitness for binding NBS DNA” value was found to be 0.645.
PIRR: the “one-hybrid fitness for binding NBS DNA” value is at most 0.2.
In the case of GDTV, the “one-hybrid fitness for binding NBS DNA” value is at most 0.2.
Take RPPP: the “one-hybrid fitness for binding NBS DNA” value is at most 0.2.
Consider RNMP, for which the “one-hybrid fitness for binding NBS DNA” value was at most 0.2.
Take VSWW: the “one-hybrid fitness for binding NBS DNA” value was at most 0.2.
As to YLQS, the “one-hybrid fitness for binding NBS DNA” value was at most 0.2.
With FVPS the figure was at most 0.2.
NGMC: the “one-hybrid fitness for binding NBS DNA” value was at most 0.2.
In the case of RIFT it was at most 0.2.
With IVSG the figure was at most 0.2; with MAQV, at most 0.2.
On to FFNC, for which the “one-hybrid fitness for binding NBS DNA” value is at most 0.2.
Consider RRQV, for which the “one-hybrid fitness for binding NBS DNA” value was 0.309.
For the variant TPTR, the “one-hybrid fitness for binding NBS DNA” value was at most 0.2.
As for LMDY, the “one-hybrid fitness for binding NBS DNA” value is at most 0.2.
In the case of NRKC it was at most 0.2; in that of WISE, at most 0.2; in that of IPQM, at most 0.2.
In the case of TPWR it was at most 0.2; in that of RYAG, at most 0.2; in that of MHQT, at most 0.2.
Take RYMD: the “one-hybrid fitness for binding NBS DNA” value was at most 0.2.
In the case of YPTF it was at most 0.2; in that of PEMA, at most 0.2; in that of YSES, at most 0.2.
For the variant RDSR, the “one-hybrid fitness for binding NBS DNA” value was at most 0.2.
Regarding HRHN, the “one-hybrid fitness for binding NBS DNA” value is at most 0.2.
Regarding ISGT, the “one-hybrid fitness for binding NBS DNA” value was at most 0.2.
In the case of LLGY it was at most 0.2.
For CTWR, the “one-hybrid fitness for binding NBS DNA” value is at most 0.2.
In the case of SQNK it was at most 0.2; in that of RDWV, at most 0.2; in that of QRYE, 0.207.
In the case of LGAF it was at most 0.2.
In the case of RIVM it was at most 0.2.
As to GSDE, the “one-hybrid fitness for binding NBS DNA” value was at most 0.2.
HQRW: the “one-hybrid fitness for binding NBS DNA” value was at most 0.2.
On to FYSS, for which the “one-hybrid fitness for binding NBS DNA” value is at most 0.2.
With REYN the figure was at most 0.2; with AAPF, at most 0.2.
On to DMMR, for which the “one-hybrid fitness for binding NBS DNA” value was at most 0.2.
With GRRG the figure was at most 0.2; with WMAC, at most 0.2.
As for CYSI, the “one-hybrid fitness for binding NBS DNA” value is at most 0.2.
In the case of RWTV, the “one-hybrid fitness for binding NBS DNA” value was at most 0.2.
Regarding VYYR, the “one-hybrid fitness for binding NBS DNA” value was at most 0.2.
TTVP: the “one-hybrid fitness for binding NBS DNA” value is at most 0.2.
As to HGME, the “one-hybrid fitness for binding NBS DNA” value was at most 0.2.
In the case of GGGK it was at most 0.2; in that of VIPE, at most 0.2.
Regarding LGTY, the “one-hybrid fitness for binding NBS DNA” value is at most 0.2.
Turning to RQWA, the “one-hybrid fitness for binding NBS DNA” value was at most 0.2.
Turning to VGQC, the “one-hybrid fitness for binding NBS DNA” value was at most 0.2.
As to TAYD, the “one-hybrid fitness for binding NBS DNA” value is at most 0.2.
With MDQR the figure was at most 0.2.
On to EHNF, for which the “one-hybrid fitness for binding NBS DNA” value is at most 0.2.
As to TGNV, the “one-hybrid fitness for binding NBS DNA” value is at most 0.2.
Consider TWMD, for which the “one-hybrid fitness for binding NBS DNA” value was at most 0.2.
In the case of NGER, the “one-hybrid fitness for binding NBS DNA” value was at most 0.2.
In the case of RTAD, the “one-hybrid fitness for binding NBS DNA” value is at most 0.2.
On to TNRH, for which the “one-hybrid fitness for binding NBS DNA” value is at most 0.2.
As for HVRV, the “one-hybrid fitness for binding NBS DNA” value was at most 0.2.
Consider QHYL, for which the “one-hybrid fitness for binding NBS DNA” value is at most 0.2.
Turning to KDQA, the “one-hybrid fitness for binding NBS DNA” value is at most 0.2.
With PTAW the figure was at most 0.2; with ASFV, at most 0.2.
In the case of CIMC it was at most 0.2; in that of TIQL, at most 0.2; in that of QLRV, 0.337.
In the case of PVVM, the “one-hybrid fitness for binding NBS DNA” value is at most 0.2.
Take MTEN: the “one-hybrid fitness for binding NBS DNA” value was at most 0.2.
Turning to AGTQ, the “one-hybrid fitness for binding NBS DNA” value was at most 0.2.
Turning to SCLH, the “one-hybrid fitness for binding NBS DNA” value is at most 0.2.
As for IEFV, the “one-hybrid fitness for binding NBS DNA” value was at most 0.2.
Take PSPT: the “one-hybrid fitness for binding NBS DNA” value is at most 0.2.
For WLAV, the “one-hybrid fitness for binding NBS DNA” value was at most 0.2.
In the case of EPAD it was at most 0.2.
MAIG: the “one-hybrid fitness for binding NBS DNA” value was at most 0.2.
With PGSY the figure was at most 0.2; with PRKT, 0.3; with QVTH, at most 0.2.
In the case of HGDH it was at most 0.2; in that of FRHT, at most 0.2; in that of APTL, at most 0.2.
In the case of LRFY it was at most 0.2; in that of FPAC, at most 0.2.
With FSSA, the “one-hybrid fitness for binding NBS DNA” value was at most 0.2.
On to QAKN, for which the “one-hybrid fitness for binding NBS DNA” value stood at 0.356.
As to FDPN, the “one-hybrid fitness for binding NBS DNA” value is at most 0.2.
In the case of NLLE, the “one-hybrid fitness for binding NBS DNA” value was at most 0.2.
With FHLS, the “one-hybrid fitness for binding NBS DNA” value is at most 0.2.
As for LRAM, the “one-hybrid fitness for binding NBS DNA” value is at most 0.2.
Regarding RGWA, the “one-hybrid fitness for binding NBS DNA” value is at most 0.2.
In the case of GRLR it was at most 0.2.
Consider KQIR, for which the “one-hybrid fitness for binding NBS DNA” value is at most 0.2.
With CKWT, the “one-hybrid fitness for binding NBS DNA” value is at most 0.2.
For ADDR, the “one-hybrid fitness for binding NBS DNA” value is at most 0.2.
In the case of IDHR it was at most 0.2.
Turning to QEEC, the “one-hybrid fitness for binding NBS DNA” value is at most 0.2.
Turning to WNGT, the “one-hybrid fitness for binding NBS DNA” value is at most 0.2.
In the case of YVKY it was at most 0.2.
In the case of RNTC, the “one-hybrid fitness for binding NBS DNA” value is at most 0.2.
As to RVEE, the “one-hybrid fitness for binding NBS DNA” value is at most 0.2.
Take QGMS: the “one-hybrid fitness for binding NBS DNA” value was at most 0.2.
RPRP: the “one-hybrid fitness for binding NBS DNA” value was at most 0.2.
Turning to LIFR, the “one-hybrid fitness for binding NBS DNA” value is at most 0.2.
